# Experimental data reported in the supplement of paper PMC8728848.
# This is one part of the list.
# B1: Epa12 (Candida glabrata) (protein)
# chain: MGSSHHHHHHSSGLVPRGSHMLEPDNSLQIFDSFLSNPSKYPLGCSPKITNPKKGLSMELYSYPYRKKGSHPCWDPAYLDPNFPRVGYKKNKLIARVDGVSGDINFNFHPKRQCTPIADYLPPNFNYNEPITTTNFTMLLYGYFKPKVTGLHTFDISADDLLFMNFGAGNAFDCCRRDSTADTFGNYVAWAIWGRRIVRNKLTVRLDKGIYYPLRLFFNNRDYYGQMRLTFKTEHGSERITDFSDYFFSVDDTSEGCPGLITYESECADVKSSTVLETDYITIQAEKE
# How the values were obtained:
# Experiment in all cases: glycan array binding signal (z-score within array); higher = stronger binding
# Conditions in all cases: glycan notation: IUPAC condensed, linker removed
# Fuc(a1-2)Gal = target: Fuc(a1-2)Gal
# In short: (§1)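 From the Consortium for Functional Glycomics database, 3228 arrays were curated, keeping only those whose protein sequence was available. Binding is given as a within-array Z-score averaged across arrays sharing a protein sequence and across linkers. Negative Z-scores can be read as non-binding.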
# Fuc(a1-2)Gal(b1-3)GalNAc = target: Fuc(a1-2)Gal(b1-3)GalNAc
# In short: as §1
# [1] = target: Fuc(a1-2)Gal(b1-3)GalNAc(a1-3)[Fuc(a1-2)]Gal(b1-4)Glc
# In short: as §1
# [2] = target: Fuc(a1-2)Gal(b1-3)GalNAc(a1-3)[Fuc(a1-2)]Gal(b1-4)GlcNAc
# In short: as §1
# [3] = target: Fuc(a1-2)Gal(b1-3)GalNAc(b1-3)Gal
# In short: as §1
# [4] = target: Fuc(a1-2)Gal(b1-3)GalNAc(b1-3)Gal(a1-4)Gal(b1-4)Glc
# In short: as §1
# [5] = target: Fuc(a1-2)Gal(b1-3)GalNAc(b1-3)Gal(b1-4)Glc
# In short: as §1
# [6] = target: Fuc(a1-2)Gal(b1-3)GalNAc(b1-4)[Neu5Ac(a2-3)]Gal(b1-4)Glc
# In short: as §1
# Fuc(a1-2)Gal(b1-3)GlcNAc = target: Fuc(a1-2)Gal(b1-3)GlcNAc
# In short: as §1
# [7] = target: Fuc(a1-2)Gal(b1-3)GlcNAc(b1-2)Man(a1-3)[Fuc(a1-2)Gal(b1-3)GlcNAc(b1-2)Man(a1-6)]Man(b1-4)GlcNAc(b1-4)GlcNAc
# In short: as §1
# [8] = target: Fuc(a1-2)Gal(b1-3)GlcNAc(b1-2)Man(a1-3)[Fuc(a1-2)Gal(b1-3)GlcNAc(b1-2)Man(a1-6)]Man(b1-4)GlcNAc(b1-4)[Fuc(a1-6)]GlcNAc
# In short: as §1
# [9] = target: Fuc(a1-2)Gal(b1-3)GlcNAc(b1-3)Gal(b1-4)Glc
# In short: as §1
# [10] = target: Fuc(a1-2)Gal(b1-3)GlcNAc(b1-3)GalNAc
# In short: as §1
# [11] = target: Fuc(a1-2)Gal(b1-3)GlcNAc(b1-3)[Fuc(a1-2)Gal(b1-3)GlcNAc(b1-6)]GalNAc
# In short: as §1
# [12] = target: Fuc(a1-2)Gal(b1-3)GlcNAc(b1-3)[Gal(b1-4)GlcNAc(b1-6)]Gal(b1-4)Glc
# In short: as §1
# [13] = target: Fuc(a1-2)Gal(b1-3)GlcNAc(b1-3)[Neu5Ac(a2-6)Gal(b1-4)GlcNAc(b1-6)]Gal(b1-4)Glc
# In short: as §1
# [14] = target: Fuc(a1-2)Gal(b1-3)GlcNAc6S
# In short: as §1
# [15] = target: Fuc(a1-2)Gal(b1-3)[Fuc(a1-4)]GlcNAc
# In short: as §1
# [16] = target: Fuc(a1-2)Gal(b1-3)[Fuc(a1-4)]GlcNAc(b1-2)Man(a1-3)[Fuc(a1-2)Gal(b1-3)[Fuc(a1-4)]GlcNAc(b1-2)Man(a1-3)]Man(b1-4)GlcNAc(b1-4)GlcNAc
# In short: as §1
# [17] = target: Fuc(a1-2)Gal(b1-3)[Fuc(a1-4)]GlcNAc(b1-2)Man(a1-3)[Fuc(a1-2)Gal(b1-3)[Fuc(a1-4)]GlcNAc(b1-2)Man(a1-6)]Man(b1-4)GlcNAc(b1-4)[Fuc(a1-6)]GlcNAc(b1-4)[Fuc(a1-6)]GlcNAc
# In short: as §1
# [18] = target: Fuc(a1-2)Gal(b1-3)[Fuc(a1-4)]GlcNAc(b1-3)[Fuc(a1-3)[Gal(b1-4)]GlcNAc(b1-6)]Gal(b1-4)Glc
# In short: as §1
# [19] = target: Fuc(a1-2)Gal(b1-3)[Fuc(a1-4)]GlcNAc(b1-3)[Gal(b1-4)GlcNAc(b1-6)]Gal(b1-4)Glc
# In short: as §1
# [20] = target: Fuc(a1-2)Gal(b1-4)Fuc(a1-3)]GlcNAc(b1-2)Man(a1-3)[Fuc(a1-2)Gal(b1-4)[Fuc(a1-3)]GlcNAc(b1-2)Man(a1-6)]Man(b1-4)GlcNAc(b1-4)GlcNAc
# In short: as §1
# Fuc(a1-2)Gal(b1-4)Glc = target: Fuc(a1-2)Gal(b1-4)Glc
# In short: as §1
# Fuc(a1-2)Gal(b1-4)Glc6S = target: Fuc(a1-2)Gal(b1-4)Glc6S
# In short: as §1
# Fuc(a1-2)Gal(b1-4)GlcNAc = target: Fuc(a1-2)Gal(b1-4)GlcNAc
# In short: as §1
# [21] = target: Fuc(a1-2)Gal(b1-4)GlcNAc(b1-2)Man
# In short: as §1
# [22] = target: Fuc(a1-2)Gal(b1-4)GlcNAc(b1-2)Man(a1-3)[Fuc(a1-2)Gal(b1-4)GlcNAc(b1-2)Man(a1-6)]Man(b1-4)GlcNAc(b1-4)GlcNAc
# In short: as §1
# [23] = target: Fuc(a1-2)Gal(b1-4)GlcNAc(b1-2)Man(a1-3)[Fuc(a1-2)Gal(b1-4)GlcNAc(b1-2)Man(a1-6)]Man(b1-4)GlcNAc(b1-4)[Fuc(a1-6)]GlcNAc
# In short: as §1
# [24] = target: Fuc(a1-2)Gal(b1-4)GlcNAc(b1-2)[Fuc(a1-2)Gal(b1-4)GlcNAc(b1-4)]Man(a1-3)[Fuc(a1-2)Gal(b1-4)GlcNAc(b1-2)Man(a1-6)]Man(b1-4)GlcNAc(b1-4)GlcNAc
# In short: as §1
# [25] = target: Fuc(a1-2)Gal(b1-4)GlcNAc(b1-3)Gal(b1-4)GlcNAc
# In short: as §1
# [26] = target: Fuc(a1-2)Gal(b1-4)GlcNAc(b1-3)Gal(b1-4)GlcNAc(b1-2)Man(a1-3)[Fuc(a1-2)Gal(b1-4)GlcNAc(b1-3)Gal(b1-4)GlcNAc(b1-2)Man(a1-6)]Man(b1-4)GlcNAc(b1-4)GlcNAc
# In short: as §1
# [27] = target: Fuc(a1-2)Gal(b1-4)GlcNAc(b1-3)Gal(b1-4)GlcNAc(b1-3)Gal(b1-4)GlcNAc
# In short: as §1
# [28] = target: Fuc(a1-2)Gal(b1-4)GlcNAc(b1-3)GalNAc
# In short: as §1
# [29] = target: Fuc(a1-2)Gal(b1-4)GlcNAc(b1-3)[Fuc(a1-2)Gal(b1-4)GlcNAc(b1-6)]GalNAc
# In short: as §1
# [30] = target: Fuc(a1-2)Gal(b1-4)GlcNAc(b1-3)[Fuc(a1-3)[Gal(b1-4)]GlcNAc(b1-6)]Gal(b1-4)Glc
# In short: as §1
# [31] = target: Fuc(a1-2)Gal(b1-4)GlcNAc(b1-6)GalNAc
# In short: as §1
# [32] = target: Fuc(a1-2)Gal(b1-4)GlcNAc6S
# In short: as §1
# [33] = target: Fuc(a1-2)Gal(b1-4)[Fuc(a1-3)]GalNAc(b1-3)Gal(b1-4)[Fuc(a1-3)]GlcNAc
# In short: as §1
# [34] = target: Fuc(a1-2)Gal(b1-4)[Fuc(a1-3)]GalNAc(b1-3)Gal(b1-4)[Fuc(a1-3)]GlcNAc(b1-3)Gal(b1-4)[Fuc(a1-3)]GalNAc
# In short: as §1
# [35] = target: Fuc(a1-2)Gal(b1-4)[Fuc(a1-3)]GlcNAc
# In short: as §1
# [36] = target: Fuc(a1-2)Gal(b1-4)[Fuc(a1-3)]GlcNAc(b1-2)Man(a1-3)[Fuc(a1-2)Gal(b1-4)[Fuc(a1-3)]GlcNAc(b1-2)Man(a1-6)]Man(b1-4)GlcNAc(b1-4)[Fuc(a1-6)]GlcNAc
# In short: as §1
# [37] = target: Fuc(a1-2)Gal(b1-4)[Fuc(a1-3)]GlcNAc(b1-2)[Fuc(a1-2)Gal(b1-4)[Fuc(a1-3)]GlcNAc(b1-4)]Man(a1-3)[Fuc(a1-2)Gal(b1-4)[Fuc(a1-3)]GlcNAc(b1-2)Man(a1-6)]Man(b1-4)GlcNAc(b1-4)GlcNAc
# In short: as §1
# [38] = target: Fuc(a1-2)Gal(b1-4)[Fuc(a1-3)]GlcNAc(b1-3)Gal(b1-4)[Fuc(a1-3)]GlcNAc
# In short: as §1
# [39] = target: Fuc(a1-2)Gal(b1-4)[Fuc(a1-3)]GlcNAc(b1-3)Gal(b1-4)[Fuc(a1-3)]GlcNAc(b1-3)Gal(b1-4)[Fuc(a1-3)]GlcNAc
# In short: as §1
binder,measurement,setting,value
B1,glycan array binding signal (z-score),Fuc(a1-2)Gal,-0.548
same,glycan array binding signal (z-score),Fuc(a1-2)Gal(b1-3)GalNAc,-0.309
same,glycan array binding signal (z-score),[1],-0.338
same,glycan array binding signal (z-score),[2],-0.357
same,glycan array binding signal (z-score),[3],-0.222
same,glycan array binding signal (z-score),[4],-0.185
same,glycan array binding signal (z-score),[5],-0.255
same,glycan array binding signal (z-score),[6],-0.283
same,glycan array binding signal (z-score),Fuc(a1-2)Gal(b1-3)GlcNAc,-0.391
same,glycan array binding signal (z-score),[7],-0.248
same,glycan array binding signal (z-score),[8],-0.268
same,glycan array binding signal (z-score),[9],-0.348
same,glycan array binding signal (z-score),[10],-0.349
same,glycan array binding signal (z-score),[11],0.038
same,glycan array binding signal (z-score),[12],0.069
same,glycan array binding signal (z-score),[13],-0.355
same,glycan array binding signal (z-score),[14],-0.28
same,glycan array binding signal (z-score),[15],-0.321
same,glycan array binding signal (z-score),[16],-0.158
same,glycan array binding signal (z-score),[17],-0.305
same,glycan array binding signal (z-score),[18],-1.26
same,glycan array binding signal (z-score),[19],-0.259
same,glycan array binding signal (z-score),[20],-0.132
same,glycan array binding signal (z-score),Fuc(a1-2)Gal(b1-4)Glc,-0.329
same,glycan array binding signal (z-score),Fuc(a1-2)Gal(b1-4)Glc6S,-0.08
same,glycan array binding signal (z-score),Fuc(a1-2)Gal(b1-4)GlcNAc,-0.334
same,glycan array binding signal (z-score),[21],-0.329
same,glycan array binding signal (z-score),[22],-0.309
same,glycan array binding signal (z-score),[23],-0.185
same,glycan array binding signal (z-score),[24],-0.325
same,glycan array binding signal (z-score),[25],-0.342
same,glycan array binding signal (z-score),[26],-0.423
same,glycan array binding signal (z-score),[27],-0.389
same,glycan array binding signal (z-score),[28],-0.378
same,glycan array binding signal (z-score),[29],-0.221
same,glycan array binding signal (z-score),[30],-0.252
same,glycan array binding signal (z-score),[31],-0.153
same,glycan array binding signal (z-score),[32],0.087
same,glycan array binding signal (z-score),[33],-0.28
same,glycan array binding signal (z-score),[34],-0.275
same,glycan array binding signal (z-score),[35],-0.339
same,glycan array binding signal (z-score),[36],-0.305
same,glycan array binding signal (z-score),[37],-0.277
same,glycan array binding signal (z-score),[38],-0.352
same,glycan array binding signal (z-score),[39],-0.387
